About 65 (0.1%) of roughly 45,000 compounds were called active. Calls follow the shape of the dose curve; as a rule, active = well fitted activation curve with a large enough effect; inconclusive = small, poorly fitted or top-dose-only effect; inactive = no such curve, though single readings can be large or run the other way. The list shows a part of the results.
Biological target: Galactocerebrosidase (Homo sapiens) (UniProt P54803)
Test: A Novel Cell-Based Assay to Identify Small Molecules for B -Galactocerebrosidase; also: 0% is about no effect; nearly all actives have a fitted effect of over 65% in size
Conditions: 145M-Twi-hGALC-G270D cells (Twitcher mouse brain line with human GALC G270D), HMU-beta-Gal fluorescence, 48 h; series mostly up to 57.5 µM; activation: at the top concentration
Method in brief: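 Fluorogenic HMU-b-Gal hydrolysis (0.1 mM final, pH 5.2 citrate-phosphate with 1 mg/mL sodium taurocholate; carbonate stop buffer) measures mutant GALC activity after compound treatment of live 145M-Twi Twitcher brain cells stably carrying human GALC-G270D, with wild-type GALC line alongside; activation sought.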

Sequence of UniProt P54803 (P54803 whole entry, looked up): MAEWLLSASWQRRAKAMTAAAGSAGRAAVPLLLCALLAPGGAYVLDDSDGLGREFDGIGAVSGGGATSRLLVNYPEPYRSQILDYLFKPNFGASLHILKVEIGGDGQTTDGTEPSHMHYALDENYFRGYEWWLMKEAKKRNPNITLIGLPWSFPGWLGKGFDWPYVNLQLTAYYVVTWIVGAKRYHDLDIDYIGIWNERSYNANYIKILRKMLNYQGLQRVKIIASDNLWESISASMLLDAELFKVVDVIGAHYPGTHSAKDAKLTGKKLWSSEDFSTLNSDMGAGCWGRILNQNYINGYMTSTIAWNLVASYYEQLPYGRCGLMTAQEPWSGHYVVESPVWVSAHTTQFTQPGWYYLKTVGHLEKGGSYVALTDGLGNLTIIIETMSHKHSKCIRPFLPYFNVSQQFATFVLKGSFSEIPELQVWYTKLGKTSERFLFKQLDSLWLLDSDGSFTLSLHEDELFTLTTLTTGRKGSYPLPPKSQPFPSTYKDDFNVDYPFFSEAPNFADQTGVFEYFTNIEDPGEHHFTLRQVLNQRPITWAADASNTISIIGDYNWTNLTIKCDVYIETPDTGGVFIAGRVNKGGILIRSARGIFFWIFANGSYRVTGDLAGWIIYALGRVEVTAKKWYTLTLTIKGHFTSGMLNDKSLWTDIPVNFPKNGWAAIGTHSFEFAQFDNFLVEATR

activation, inactive:
Cn1c(=O)c(=O)n(C)c2cc(S(=O)(=O)N3CCCC3C(=O)Nc3ccccc3F)ccc21 (configuration not stated) -2.1%
O=C(NCCc1ccccc1)c1ccc2c(c1)N(Cc1c(F)cccc1Cl)C(=O)CS2 6.14%
COCCCNC(=O)CCC(=O)N1Cc2cccc(OC)c2Oc2ncccc21 -8.86%
CNC(=O)C1CCC(Cn2c(=O)c3sccc3n(Cc3ccc(F)cc3)c2=O)CC1 (configuration not stated) -7.76%
CCc1ccc(NC(=O)CSc2nccn2-c2ccc(OC)cc2)cc1 -6.99%
CC(=O)N1CCCc2cc(S(=O)(=O)N3CCC(C(=O)NC4CCC(C)CC4)CC3)ccc21 (configuration not stated) -18.1%
CC1(C(=O)Nc2cccc(Br)c2)Cc2ccccc2C(=O)O1 (configuration not stated) -7.21%
Cc1ccccc1OCCSc1nc2ccc(NC(=O)c3ccccc3)cc2s1 -16.7%
Cc1nc(-c2cccc(NC(=O)Nc3ccc([N+](=O)[O-])cc3)c2)no1 -28.1%
NC(N)=NS(=O)(=O)c1ccc(N)cc1 -6.48%
COC(=O)c1ccccc1NC(=O)c1ncoc1-c1ccco1 -10.6%
CCn1c(C(=O)NCc2ccccc2C)cc2oc3ccccc3c21 -8.22%
CCCc1cc(=O)oc2c3c(ccc12)OCN(Cc1ccc(OC)cc1)C3 -20.1%
COc1cccc2c1cc1c(=O)n(CC(=O)NC3CCCCC3)nc(C)n12 -15.3%
Cc1ccc(C(=O)Nc2cccc(OCc3cc(=O)n4c5c(sc4n3)CCCC5)c2)cc1 -0.916%
COc1cc(C(=O)N2CCN(c3ccc(Nc4ccc(C)cc4)nn3)CC2)cc(OC)c1OC 1.73%
CCCN1C(=O)c2[nH]nc(-c3ccccc3O)c2C1c1ccc(OCc2ccccc2)c(OC)c1 (configuration not stated) -4.66%
C[C@@H](O)[C@H]1C(=O)N2C(C(=O)O)=C([C@H]3CCCO3)S[C@H]12 -11.2%
COC(=O)Cn1nc(C)c2c(C)n(-c3ccccc3)nc2c1=O -9.57%
CCCc1cnc2c(c1SCC(=O)N1CCC(C)CC1)c(=O)n(C)c(=O)n2C -10.9%
O=C(NCCc1ccccc1)c1sc2ncccc2c1-n1cccc1 -27.8%
CCC1CCCCN1C(=O)Cn1c(=O)oc2cc(S(=O)(=O)N3CCCCC3)ccc21 (configuration not stated) 15.7%
Cc1ccc(NC(=O)c2cc3cc(C)ccc3n2C)cc1 -11%
NC(=O)CSc1oc(-c2ccco2)nc1S(=O)(=O)c1ccc(Cl)cc1 -26.6%
CCOC(=O)c1ccc(NC(=O)Cn2c(=O)cc(C)c3c(C)nn(-c4cccc(F)c4)c32)cc1 -9.7%
OCCN1CCN(CC/C=C2/c3ccccc3Sc3ccc(C(F)(F)F)cc32)CC1 -21.2%
Cc1ccc(NC(=O)C(Cc2ccccc2)NS(=O)(=O)c2ccc3c(c2)oc(=O)n3C)cc1F (configuration not stated) 1.63%
O=C(Nc1nc2n(n1)C(c1ccc(F)cc1)C=C(c1ccccc1)N2)c1ccc(Cl)cc1 (configuration not stated) -4.22%
CCC(=O)N1c2ccccc2CC1C(=O)NCc1cccc(C)c1 (configuration not stated) -1.73%
CCN(CC)CCCNC(=O)Cn1nc(C)n2c(cc3sccc32)c1=O -16.6%
Cc1ccccc1-c1nc(CS(=O)CC(=O)N2CCN(c3cc(Cl)ccc3C)CC2)c(C)o1 (configuration not stated) -6.6%
Cc1nn(S(=O)(=O)c2ccccc2)c(C)c1S(=O)(=O)N1CCC(C)CC1 -31.3%
CCc1ccccc1NC(=O)Cn1ccn(-c2cc(C)cc(C)c2)c(=O)c1=O -0.928%
COc1ccc(NC(=O)c2ccc3oc(=O)c(S(=O)(=O)c4ccc(C)cc4)cc3c2)cc1OC -24.1%
CCOc1cccc(C2Nc3ccccc3-c3cc(C)nn32)c1O (configuration not stated) -18.2%
Clc1cccc(CSc2nncn3c2cc2sccc23)c1 0.56%
COc1ccc(OC)c(C(=O)c2c(N)c(-c3nc(-c4ccc(C)c(C)c4)cs3)c3ccccn23)c1 0.412%
Cc1ccc(C(=O)c2oc3ccccc3c2NC(=O)Cc2coc3cc(C)ccc23)cc1 -20%
CCCCc1ccc(NC(=O)Cn2nnc3sc4c(c3c2=O)CCC(C)C4)cc1 (configuration not stated) -11.2%
COc1ccc(Cn2nnc3c(=O)[nH]c(C4CCCN(C(=O)c5ccc(C)cc5)C4)nc32)cc1 (configuration not stated) -9.68%
COc1ccc(CCNC(=O)Cn2c(=O)n(-c3ccc(C)c(C)c3)c(=O)c3c(C)c(C)sc32)cc1OC -9.69%
CCCCCCCCCCCCCCCCCCNC(=O)OC1CCN(C(=O)OC[C@H](COC(=O)N(Cc2cccc[n+]2CC)C(=O)c2ccccc2OC)OC)CC1 -11.6%
Cc1ccc(NC(=O)CSc2nc(C)c(Cc3ccccc3)c(=O)[nH]2)cc1C -18.5%
CCn1c(=NC(=O)c2ccc3c(c2)OCCO3)sc2c(C)ccc(OC)c21 -38.4%
CCOC(=O)C1(C)C=C(Nc2ccc(Br)cc2)C(=O)N1c1ccccc1 (configuration not stated) -6.1%
O=C(O)CCCCCCCC(=O)O -17%
COc1cc(C(=O)CC2(O)C(=O)N(Cc3ccccc3Cl)c3ccccc32)cc(OC)c1OC (configuration not stated) -37.7%
Cc1ccc2sc(N(Cc3cccnc3)C(=O)CCOc3ccccc3)nc2c1C -10.7%
Cc1c(C(=O)N(Cc2ccc(N(C)C)cc2)C2CCS(=O)(=O)C2)oc2ccccc12 (configuration not stated) -7.03%
O=C(c1ccc2c(c1)N(Cc1ccccc1)C(=O)c1ccccc1S2(=O)=O)N1CCN(c2ccccc2)CC1 13.7%
COc1ccc(OC)c(C2NC(=O)NC(C)=C2C(=O)Nc2cc(C)cc(C)c2)c1 (configuration not stated) -16.7%
COc1ccc(CCNC(=O)Cc2c(C)c3c(cc(C)c4c(C)coc43)oc2=O)cc1OC -1.02%
Cc1ccc(OCC(=O)Nc2ccc(OCc3cc(=O)n4cccc(C)c4n3)cc2)cc1C -1.59%
Cc1nn(C(C)C(=O)NC2CCCCC2)c(=O)c2c1sc1ccccc12 (configuration not stated) -12.3%
Cc1ccc(-c2nnc(Nc3ccc(Br)cc3)c3ccccc23)cc1S(=O)(=O)N1CCN(C)CC1 8.37%
COc1ccc(CC(=O)NC2CC(=O)N(c3cccc(F)c3)C2)cc1 (configuration not stated) 2.72%
CCN(c1ccccc1)C(CNS(=O)(=O)c1ccccc1)c1ccccc1 (configuration not stated) -2.07%
COc1ccc(CCNC(=O)c2ccc3c(c2)CCN3S(C)(=O)=O)cc1 -15.6%
COc1ccc2c(CNCc3ccc(C)o3)c(C(=O)O)n(Cc3ccccc3C)c2c1 -17.1%
CCN(C(=O)C(=O)Nc1ccc2nc3n(c(=O)c2c1)CCCCC3)c1ccc(F)cc1 0.401%
COc1ccc(C2CC(=O)c3cc(-c4nc(-c5cccc([N+](=O)[O-])c5)cs4)c(=O)n(-c4ccc(C)c(C)c4)c3C2)cc1 (configuration not stated) -4.34%
Cc1nnc(NC(=O)CSc2nc3c([nH]c4ccccc43)c(=O)n2-c2ccccc2)s1 -12.2%
O=C(Nc1c(C(=O)N2CCN(c3ccc(F)cc3)CC2)oc2ccccc12)c1c(F)cccc1F -25%
CC(O)CN(CCN(CC(C)O)CC(C)O)CC(C)O (configuration not stated) -11.9%
CCC1CCCCN1CCCNC(=O)CN1C(=O)c2cccnc2Oc2ccc(Cl)cc21 (configuration not stated) -4.33%
Cc1sccc1Br -12.3%
O=C(Cn1cc(SCc2ccc(C(F)(F)F)cc2)c2ccccc21)N1CCCCCC1 -12.6%
COc1ccc(Cn2c(CNC(=O)c3ccc(N(C)C)cc3)nc3cccnc32)cc1 -12.9%
CC(C)Oc1ccc(C(=O)Nc2ccc3c(c2)CCCN3C(=O)c2cccs2)cc1 -15.8%
CCC(Sc1nc2ccccc2c2nc(CCn3cncc3C)nn12)C(=O)Nc1cccc(OC)c1 (configuration not stated) -4.91%
Cc1ccc(NC(=O)c2oc3ccc(S(=O)(=O)N4CCCCCC4)cc3c2C)cc1Cl -5.01%
CC(C)CSc1nnc(-c2ccccc2)c(-c2ccccc2)n1 -2.99%
Cc1cc(C)c2nc(N3CCCC(C(=O)NCc4cccc(Br)c4)C3)sc2c1 (configuration not stated) -6.25%
Fc1ccc(Nc2nc3ccccc3c3nncn23)c(Cl)c1 -6.62%
COc1ccc(CCNC(=O)c2ccc(Cn3c(=O)c4ccccc4n(Cc4cc(C)ccc4C)c3=O)cc2)cc1OC -18.5%
Cc1ccc2oc(=O)c3cc(C(=O)Nc4ccc(F)cc4F)sc3c2c1 -11.2%
CCc1ccc(NC(=O)C2CCC(CNS(=O)(=O)c3ccc4c(c3)CC(C)N4C(C)=O)CC2)cc1 (configuration not stated) -3.6%
COc1ccc(-c2nc3ccccc3s2)cc1NC(=O)COc1ccccc1C -6.32%
COc1ccccc1OCCn1c(NC(=O)c2ccc(Cl)cc2)nc2ccccc21 -18.2%
CCCN1C(=O)c2[nH]nc(-c3ccccc3O)c2C1c1ccc(OCc2ccccc2)c(OCC)c1 (configuration not stated) -9.11%
Cc1ccc(Cl)cc1NC(=O)CN1C(=O)c2cccc3cccc1c23 -5.98%
COc1ccc(C)c2sc(N(Cc3cccnc3)C(C)=O)nc12 -14.9%
N#Cc1cccc(NC(=O)Cn2nc(Cc3ccncc3)c3ccccc3c2=O)c1 0.58%
CCN1C(=O)C(Cc2nc3ccccc3c(=O)n2-c2ccc(OC)cc2)c2cc(C)ccc21 (configuration not stated) -6.16%
Cc1ccc(C)c(Nc2nc(-c3ccccc3)c3cc(Br)ccc3n2)c1 -13.2%
O=C(COc1ccccc1)NCCc1csc(-c2cccc(F)c2)n1 -10.4%
COC(=O)c1cccc(Cn2nnc3sc4c(c3c2=O)CCC(C(C)(C)C)C4)c1 (configuration not stated) -16.4%
COc1ccc(CCNC(=O)CCCCn2c(=O)c3ccccc3n(CC(=O)Nc3ccc(C)cc3C)c2=O)cc1OC -12.5%
CCN(CC)CCNC(=O)C(=O)NCC(c1cccnc1)N1CCN(c2ccccc2)CC1 (configuration not stated) -12.7%
O=C(Nc1cccc(Cl)c1)c1cc(-c2ccc3c(c2)OCCO3)on1 -13.7%
Cc1nnc(N2CCCC(C(=O)Nc3cccc(C(F)(F)F)c3)C2)c2nn(-c3ccccc3)c(C)c12 (configuration not stated) -11.5%
Cc1cccc(N(C)C(CNS(=O)(=O)c2ccccc2)c2ccccc2)c1 (configuration not stated) -0.945%
Cc1cccc(C(=O)Nc2cccc(OCc3cc(=O)n4cccc(C)c4n3)c2)c1 -5.56%
O=C(CSc1ccccc1)NCc1ccc2c(c1)CCN2C(=O)c1ccc(Cl)cc1 -10.8%
CC(C)(C)OC(=O)N1CCC(c2c(C(=O)NC3CCCCC3)cnn2-c2cccc(F)c2)CC1 -5.39%
Cc1cc(Sc2ccc(Cl)cc2)nc2ccccc12 -14.5%
CC(NC(=O)c1ccc(NC(=O)c2nsc3ccccc23)cc1)c1ccccc1 (configuration not stated) -8.13%
